Data on one substance can be found in publication PMC12500962.

Results are given in words; binding and its absence hold for the method and conditions named. In cells and extracts the contact can be indirect. Some results given as binding are weak or reduced against the parent protein; the word gives no strength.

Assay [1] addresses T1, pancreatic progenitor cell differentiation and proliferation factor (PPDPF) (human (endogenous in DLD1, HT29, HCT116, RKO)) (UniProt Q9H3Y8).
T1 sequence: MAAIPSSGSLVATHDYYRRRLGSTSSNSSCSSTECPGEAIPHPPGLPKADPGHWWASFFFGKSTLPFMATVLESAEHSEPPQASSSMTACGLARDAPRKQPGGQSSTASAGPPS
Put plainly: condition: only in HCT116 cells (control or full-length APC plasmid); co-IP; HCT116 cells transfected with control or full-length APC plasmid; which protein was precipitated is not told.

Assay [2] concerns the target T2, dishevelled (Dvl), DVL1 (human (endogenous in DLD1, HT29, HCT116, RKO)) (UniProt O14640).
T2 sequence: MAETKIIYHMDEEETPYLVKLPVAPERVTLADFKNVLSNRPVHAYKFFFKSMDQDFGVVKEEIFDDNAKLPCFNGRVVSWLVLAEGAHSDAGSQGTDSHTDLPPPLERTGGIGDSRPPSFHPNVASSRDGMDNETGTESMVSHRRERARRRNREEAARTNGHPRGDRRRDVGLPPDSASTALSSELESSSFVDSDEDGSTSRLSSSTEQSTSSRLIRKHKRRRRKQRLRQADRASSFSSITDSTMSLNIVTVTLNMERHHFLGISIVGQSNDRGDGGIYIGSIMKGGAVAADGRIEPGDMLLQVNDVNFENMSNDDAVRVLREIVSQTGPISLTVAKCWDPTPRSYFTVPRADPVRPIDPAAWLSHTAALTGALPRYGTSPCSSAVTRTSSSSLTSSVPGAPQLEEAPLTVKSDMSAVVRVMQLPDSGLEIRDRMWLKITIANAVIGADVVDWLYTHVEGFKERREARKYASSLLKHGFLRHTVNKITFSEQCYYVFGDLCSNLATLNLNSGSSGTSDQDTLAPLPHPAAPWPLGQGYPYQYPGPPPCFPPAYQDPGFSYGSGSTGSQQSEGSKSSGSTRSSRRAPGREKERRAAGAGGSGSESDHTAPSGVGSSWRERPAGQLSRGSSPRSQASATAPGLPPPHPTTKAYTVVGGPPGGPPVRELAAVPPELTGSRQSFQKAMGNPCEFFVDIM
The description is as above.

Assay [3] concerns the target T1, pancreatic progenitor cell differentiation and proliferation factor (PPDPF) (human (endogenous in DLD1, HT29, HCT116, RKO)). Description: co-IP; DLD1 and HT29 cells transfected with control plasmid or full-length APC plasmid; which protein was precipitated is not told.
Assay [4] addresses β-catenin (human (endogenous in DLD1, HT29, HCT116, RKO)) (UniProt P35222). The description is as above.
Assay [5] concerns the target T2, dishevelled (Dvl), DVL1 (human (endogenous in DLD1, HT29, HCT116, RKO)). The assay is described as above.
Assay [6] deals with T1, pancreatic progenitor cell differentiation and proliferation factor (PPDPF) (human (endogenous in DLD1, HT29, HCT116, RKO)). Description: condition: only cells without full-length APC overexpression (DLD1, HT29, HCT116); proximity ligation; DLD1, HT29 and HCT116 cells without full-length APC plasmid; primary antibodies against the two proteins; confocal microscopy.
Assay [7] concerns the target T2, dishevelled (Dvl), DVL1 (human (endogenous in DLD1, HT29, HCT116, RKO)). The assay is described as above.
Assay [8] addresses T1, pancreatic progenitor cell differentiation and proliferation factor (PPDPF) (human (endogenous in DLD1, HT29, HCT116, RKO)). Put plainly: proximity ligation; DLD1, HT29 and HCT116 cells transfected with full-length APC plasmid; primary antibodies against the two proteins; confocal microscopy.
Assay [9] deals with T2, dishevelled (Dvl), DVL1 (human (endogenous in DLD1, HT29, HCT116, RKO)). The assay is described as above.
In assay [10] the target is β-catenin (human (endogenous in DLD1, HT29, HCT116, RKO)) (UniProt P35222). Put plainly: proximity ligation; DLD1, HT29 and HCT116 cells without full-length APC plasmid; primary antibodies against the two proteins; confocal microscopy.

“HECT, UBA, and WWE domain containing E3 ligase 1 (HUWE1) (from UniProt Q7Z6Z7 1-4374) (enzyme)”: the binding entry in assay [1] was “no binding”; in assay [2] it was “no binding”; in assay [3] it was “binds”; in [4], “binds”; in assay [5], “binds”; in assay [6] it was “no binding”. Besides, the binding entry in assay [7] is listed as “no binding”; in assay [8] it was “binds”; in assay [9], “binds”; in [10], “binds”.
